{
  "source": "paper PMC4336329",
  "about": "(PLoS ONE, 2015)",
  "note": "The campaign covered roughly 310,000 compounds. About 14,000 (4.5%) showed an effect of 50% or more. Effects have a minus sign here. The list shows a part of the results.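 Also: peak tail current of the secondary pulse compared with the same well before compound.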",
  "data": [
    {"target": "human ether-à-go-go-related gene (hERG) potassium channel (human, UniProt Q12809)", "sequence (Q12809 whole entry, looked up)": "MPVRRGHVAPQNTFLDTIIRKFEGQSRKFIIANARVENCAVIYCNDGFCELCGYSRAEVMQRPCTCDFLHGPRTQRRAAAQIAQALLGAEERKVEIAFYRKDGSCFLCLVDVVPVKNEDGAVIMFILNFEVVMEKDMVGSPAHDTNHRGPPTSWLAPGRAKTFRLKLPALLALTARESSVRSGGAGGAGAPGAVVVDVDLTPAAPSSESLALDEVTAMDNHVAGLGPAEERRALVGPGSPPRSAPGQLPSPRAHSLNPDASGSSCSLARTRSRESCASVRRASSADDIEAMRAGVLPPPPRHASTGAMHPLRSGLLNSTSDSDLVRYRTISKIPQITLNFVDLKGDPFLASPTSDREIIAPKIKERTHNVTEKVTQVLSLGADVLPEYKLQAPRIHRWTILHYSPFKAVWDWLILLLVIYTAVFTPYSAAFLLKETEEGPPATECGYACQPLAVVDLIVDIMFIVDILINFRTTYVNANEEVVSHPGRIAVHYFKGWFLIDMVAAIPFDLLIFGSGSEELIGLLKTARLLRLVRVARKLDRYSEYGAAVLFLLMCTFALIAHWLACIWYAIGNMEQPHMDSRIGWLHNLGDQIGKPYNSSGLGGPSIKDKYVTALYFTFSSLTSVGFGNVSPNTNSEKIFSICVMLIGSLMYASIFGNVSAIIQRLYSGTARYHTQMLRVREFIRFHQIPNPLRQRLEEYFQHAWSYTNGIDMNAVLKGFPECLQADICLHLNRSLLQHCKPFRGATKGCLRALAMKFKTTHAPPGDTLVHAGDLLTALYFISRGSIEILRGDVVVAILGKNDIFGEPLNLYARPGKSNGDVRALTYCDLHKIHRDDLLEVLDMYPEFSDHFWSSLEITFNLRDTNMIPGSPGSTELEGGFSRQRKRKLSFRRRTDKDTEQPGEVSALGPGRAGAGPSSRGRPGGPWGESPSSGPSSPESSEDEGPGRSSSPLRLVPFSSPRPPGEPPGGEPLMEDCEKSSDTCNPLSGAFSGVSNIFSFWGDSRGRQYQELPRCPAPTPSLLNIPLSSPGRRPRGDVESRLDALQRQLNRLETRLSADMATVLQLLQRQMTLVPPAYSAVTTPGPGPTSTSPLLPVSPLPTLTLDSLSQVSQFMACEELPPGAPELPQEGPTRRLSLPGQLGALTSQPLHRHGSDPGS", "assay": "primary screen, population patch clamp on CHO cells stably expressing hERG", "units": {"hERG current change (%, negative = inhibition) at 10uM": "%"}, "values": [
      {"smiles": "Cc1ccc(Cn2nc(C)c(NC(=O)c3cc(-c4ccc5c(c4)OCO5)on3)c2C)cc1", "hERG current change (%, negative = inhibition) at 10uM": 11.6},
      {"smiles": "O=S1(=O)CCOC[C@H](CC2CCCCC2)N1Cc1cccc(C(F)(F)F)c1", "hERG current change (%, negative = inhibition) at 10uM": 2.78},
      {"smiles": "COc1ccc(CCNC(=O)C(=O)NCC2OCCN2S(=O)(=O)c2ccc(C)cc2)cc1OC", "note": "(stereo not drawn)", "hERG current change (%, negative = inhibition) at 10uM": -23.8},
      {"smiles": "CN(C)S(=O)(=O)N1CCN(S(=O)(=O)N2CCOCC2)CC1", "hERG current change (%, negative = inhibition) at 10uM": 17.2},
      {"smiles": "Cc1nc(CSc2ccc(Cl)cc2)cc(NCc2ccccc2)n1", "hERG current change (%, negative = inhibition) at 10uM": -25.2},
      {"smiles": "CCN(CC(=O)Nc1c(F)cccc1F)C(=O)c1cccc(S(=O)(=O)N2CCN(c3ccccc3)CC2)c1", "hERG current change (%, negative = inhibition) at 10uM": 2.51},
      {"smiles": "Cc1c(Cl)c([N+](=O)[O-])nn1CC(=O)NCCCN1CCOCC1", "hERG current change (%, negative = inhibition) at 10uM": 0.126},
      {"smiles": "CCN(CC(=O)Nc1ccccc1OC)C(=O)CSCc1c(C)noc1C", "hERG current change (%, negative = inhibition) at 10uM": 17.4},
      {"smiles": "C=COCCNC(=O)C1CC(=O)N(c2ccc(C)cc2)C1", "note": "(stereo not drawn)", "hERG current change (%, negative = inhibition) at 10uM": -2.77},
      {"smiles": "Cc1ccc(S(=O)(=O)Nc2c(C(=O)O)[nH]c3ccccc23)c(C)c1", "hERG current change (%, negative = inhibition) at 10uM": 8.39},
      {"smiles": "COc1cc(=O)n2c(n1)SCCC2", "hERG current change (%, negative = inhibition) at 10uM": 15.9},
      {"smiles": "CC(C)(C)c1ccc(OCC(=O)OCCNC(=O)c2cccnc2)cc1.Cl", "hERG current change (%, negative = inhibition) at 10uM": -14.7},
      {"smiles": "Cc1nn(C(C)c2n[nH]c(=S)n2-c2ccc(F)cc2)c(C)c1[N+](=O)[O-]", "note": "(stereo not drawn)", "hERG current change (%, negative = inhibition) at 10uM": 13.3},
      {"smiles": "O=C(c1ccccc1)c1ccccn1", "hERG current change (%, negative = inhibition) at 10uM": 2.58},
      {"smiles": "COCc1c(C(C)C)nc(C(C)C)c(/C=C/[C@@H](O)C[C@@H](O)CC(=O)[O-])c1-c1ccc(F)cc1.[Na+]", "hERG current change (%, negative = inhibition) at 10uM": 17.9},
      {"smiles": "O=S(=O)(NCc1ccccn1)c1cc(C(F)(F)F)ccc1Cl", "hERG current change (%, negative = inhibition) at 10uM": 22.5},
      {"smiles": "Cc1nc(SCC(=O)Nc2ccccc2)c2oc3ccccc3c2n1", "hERG current change (%, negative = inhibition) at 10uM": 8.96},
      {"smiles": "COc1ccc2nc(NNC(=O)C3COc4ccccc4O3)sc2c1", "note": "(stereo not drawn)", "hERG current change (%, negative = inhibition) at 10uM": -15.1},
      {"smiles": "O=C(CSCc1ccc([N+](=O)[O-])cc1)NC1CC2CCC1C2", "note": "(stereo not drawn)", "hERG current change (%, negative = inhibition) at 10uM": -15.3},
      {"smiles": "CCOc1ccc(CCNS(=O)(=O)c2cnc[nH]2)cc1OCC", "hERG current change (%, negative = inhibition) at 10uM": 20.1},
      {"smiles": "CC(C)c1csc(CN2CCN(Cc3ccc(F)cc3)C(CCO)C2)n1", "note": "(stereo not drawn)", "hERG current change (%, negative = inhibition) at 10uM": -35.3},
      {"smiles": "COc1ccccc1NC(=S)N1CCC(NC(=O)NC23CC4CC(CC(C4)C2)C3)CC1", "hERG current change (%, negative = inhibition) at 10uM": -7.81},
      {"smiles": "[Br-].c1ccc(Cn2c(-c3ccccc3)c[n+]3c2SCCC3)cc1", "hERG current change (%, negative = inhibition) at 10uM": -70.9},
      {"smiles": "Cc1cc(C)c(S(=O)(=O)c2ccc(Cl)cc2)c(=O)[nH]1", "hERG current change (%, negative = inhibition) at 10uM": 5.18}
    ]}
  ]
}
